PubChem BioAssay AID1347165 (National Center for Advancing Translational Sciences (NCATS), 2019)
Several values for one entry are separate records, joined by “and”; a condition that tells them apart may be missing. Equal entries are not always repeated. The campaign covered roughly 220,000 compounds. About 5,700 (2.6%) were called active. Inconclusive results, whose numbers are uncertain, are shown with a selection of clear calls. Calls come from the whole dose curve; as a rule, active = well fitted inhibition curve with a large enough effect; inconclusive = small, poorly fitted or top-dose-only effect; inactive = no such curve, though single readings can be large or run the other way. Potencies of inconclusive entries are doubtful fits and often do not repeat.

target: Lysine-specific demethylase 5B (Homo sapiens) (UniProt Q9UGL1); assay: Primary screen for KDM5B Histone Demethylases FDH-coupled qHTS; conditions: FDH-coupled NADH fluorescence (FDH is formaldehyde dehydrogenase); activity change, negative = inhibition: at 57.7 µM (top of the series) unless noted; note: nearly all actives have a fitted effect of over 70% in size; for activity change, negative = inhibition: 0% is about no effect
Chain of UniProt Q9UGL1 (Q9UGL1 whole entry, looked up, the tested form may be a part): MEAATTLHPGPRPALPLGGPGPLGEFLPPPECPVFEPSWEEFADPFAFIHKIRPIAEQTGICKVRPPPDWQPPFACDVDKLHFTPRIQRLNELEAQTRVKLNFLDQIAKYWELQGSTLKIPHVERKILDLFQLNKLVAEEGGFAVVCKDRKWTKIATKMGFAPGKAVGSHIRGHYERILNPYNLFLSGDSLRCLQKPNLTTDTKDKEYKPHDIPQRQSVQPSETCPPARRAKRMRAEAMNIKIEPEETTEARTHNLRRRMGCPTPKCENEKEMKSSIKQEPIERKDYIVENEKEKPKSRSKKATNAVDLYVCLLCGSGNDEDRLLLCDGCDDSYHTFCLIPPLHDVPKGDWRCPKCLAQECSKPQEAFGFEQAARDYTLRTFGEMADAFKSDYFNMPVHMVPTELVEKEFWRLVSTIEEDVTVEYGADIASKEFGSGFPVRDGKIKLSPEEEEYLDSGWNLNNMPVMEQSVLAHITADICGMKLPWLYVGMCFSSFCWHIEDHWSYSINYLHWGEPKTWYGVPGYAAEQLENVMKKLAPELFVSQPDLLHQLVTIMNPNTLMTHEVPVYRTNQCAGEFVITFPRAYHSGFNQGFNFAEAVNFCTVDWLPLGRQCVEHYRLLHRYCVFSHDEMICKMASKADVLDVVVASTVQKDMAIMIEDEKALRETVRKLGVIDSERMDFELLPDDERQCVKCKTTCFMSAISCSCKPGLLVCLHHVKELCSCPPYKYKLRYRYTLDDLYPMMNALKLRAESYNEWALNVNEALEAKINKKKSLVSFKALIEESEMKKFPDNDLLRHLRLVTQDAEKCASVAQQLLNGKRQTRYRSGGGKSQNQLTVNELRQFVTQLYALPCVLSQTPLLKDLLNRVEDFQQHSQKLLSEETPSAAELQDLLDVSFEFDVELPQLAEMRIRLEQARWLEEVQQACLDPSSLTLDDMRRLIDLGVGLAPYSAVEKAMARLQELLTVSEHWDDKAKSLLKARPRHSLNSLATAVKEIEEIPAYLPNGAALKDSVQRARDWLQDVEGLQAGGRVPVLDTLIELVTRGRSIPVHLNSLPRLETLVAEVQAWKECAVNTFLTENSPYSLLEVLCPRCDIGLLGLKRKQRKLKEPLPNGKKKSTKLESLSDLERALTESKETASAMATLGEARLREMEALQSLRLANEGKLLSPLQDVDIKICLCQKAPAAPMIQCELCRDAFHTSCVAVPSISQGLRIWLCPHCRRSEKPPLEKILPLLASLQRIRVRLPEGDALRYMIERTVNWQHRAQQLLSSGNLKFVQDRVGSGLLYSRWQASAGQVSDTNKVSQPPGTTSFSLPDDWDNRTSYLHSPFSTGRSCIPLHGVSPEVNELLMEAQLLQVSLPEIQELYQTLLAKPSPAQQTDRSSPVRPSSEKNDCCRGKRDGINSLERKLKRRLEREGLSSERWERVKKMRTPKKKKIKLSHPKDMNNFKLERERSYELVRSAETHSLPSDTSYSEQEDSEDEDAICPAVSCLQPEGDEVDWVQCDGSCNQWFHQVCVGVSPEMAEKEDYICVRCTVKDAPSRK
In short: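 Inhibition is measured as reduced NADH fluorescence generation from FDH coupling to formaldehyde release. Truncated KDM5BΔAP at 200 nM final acts on H3K4me3 peptide (12.5 µM in substrate mix) in pH 7.5 HEPES buffer with Tween-20, 30 min, room temperature.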
Potency is the fitted concentration of half-maximal effect; tags give direction and shape of the fitted curve.

CCOc1cc2[nH]c(=O)n(Cc3ccc(C(=O)N4CCN(c5ccccc5)CC4)cc3)c(=O)c2cc1OCC was tested. Which Potency did it give?
The Potency was inconclusive: 14.1 µM [inhibitor, partial curve, poor fit].

CCOc1ccccc1C(=O)N1C[C@@H](CN2CCCN(C)CC2)[C@@H](CO)C1 was tested. Which Potency did it give?
The Potency was inconclusive: 7.94 µM [inhibitor, partial curve].

With Cc1ccc(C(C)C)c(OCC(O)CNCc2ccccc2)c1 (stereo unspecified) as the compound, how does the “activity change, negative = inhibition” value read?
The value was inactive: 17.7%.

For Cn1cc(S(=O)(=O)N2CCN(Cc3ccccc3F)CC2)c(=O)n(C)c1=O, which “activity change, negative = inhibition” value is on record?
The value was inactive: -5.52%.

c1ccc(Nc2ncc(-c3ccccc3)c3c2OCC3)cc1 was tested. Which “activity change, negative = inhibition” value did it give?
The value was inactive: -202% [at 115 µM].

N#CCCC(C#N)Cn1nc(-c2ccccc2)c2ccccc2c1=O (stereo unspecified) was tested. Which “activity change, negative = inhibition” value did it give?
The value was inactive: 4.44%.

With O=C(O)c1ccc(-c2ccco2)cc1 as the compound, how does the Potency read?
The Potency was inconclusive: 22.4 µM [inhibitor, partial curve, poor fit].

How did the Potency turn out when COc1cccc2cc(-c3cn4ccccc4n3)c(=O)oc12 was run?
Its Potency is inconclusive: 2.82 µM [inhibitor, full curve, poor fit].

For COc1ccc(OC)c(CNC(=O)CCC[C@H]2NC[C@@H]3C[C@H]2CN(Cc2ccccc2)C3)c1, which Potency is on record?
The Potency was inconclusive: 17.8 µM [inhibitor, partial curve, poor fit].

For COc1ccc(-c2nc(-c3ccccc3)nc3c2CN(C(=O)C2CC2)CC3)cc1, which “activity change, negative = inhibition” value is on record?
Its value is inactive: 84.9%.

With c1ccc2c(c1)CCN2C1CN(Cc2cccc3ccccc23)C1 as the compound, how does the Potency read?
Its Potency is active: 100 µM.

CCc1ccc(NC(=O)Cn2c(=O)n(Cc3nc(C)no3)c(=O)c3cc4c(cc32)OCO4)cc1 was tested. Which Potency did it give?
Its Potency is inconclusive: 14.1 µM [inhibitor, partial curve, poor fit].

For CC(C)NC(=O)c1ccc2c(c1)C1(CCN(CC3CC3)C1)CN2Cc1ccccc1 (stereo unspecified), which Potency is on record?
Its Potency is active: 28.2 µM.

Cc1ccc(CSc2oc(-c3ccco3)nc2S(=O)(=O)c2ccc(Br)cc2)cc1 was tested. Which Potency did it give?
Its Potency is inconclusive: 20 µM [inhibitor, partial curve, poor fit].

With Fc1cc(Br)ccc1NC(=S)NCc1cccs1 as the compound, how does the “activity change, negative = inhibition” value read?
The value was inactive: -16.1%.

Which Potency does the source give for CC(=O)Nc1ccc(/C(C)=N/NC(=O)c2ccc(COc3ccccc3Cl)o2)cc1 here?
Its Potency is inconclusive: 28.2 µM [inhibitor, partial curve, poor fit].

For O=C1/C(=C/c2ccc(F)cc2)CCc2ccccc21, which “activity change, negative = inhibition” value is on record?
The value was inactive: 11.3%.

How did the Potency turn out when O=C(NCc1nnc2ccc(-c3ccccc3)nn12)c1cccc(Cl)c1 was run?
Its Potency is inconclusive: 28.2 µM [inhibitor, partial curve, poor fit].

Which Potency does the source give for COc1ccc(CNC(=O)c2ccc(Cn3ccn4nc5c(c4c3=O)CCCC5)cc2)c(OC)c1 here?
The Potency was inconclusive: 35.5 µM [inhibitor, single point].

With Cc1nc2cc(F)ccc2cc1C(=O)N(Cc1cccnc1)C1CC1 as the compound, how does the “activity change, negative = inhibition” value read?
The value was inactive: -3.63%.

With CCOCCCNC(=O)c1cc2c(=O)n3ccccc3nc2s1 as the compound, how does the Potency read?
The Potency was inconclusive: 31.6 µM [inhibitor, partial curve, poor fit] and inconclusive: 22.4 µM [inhibitor, partial curve, poor fit].

How did the Potency turn out when O=C(/C=C\c1ccc2c(c1)OCO2)NC1CC(=O)N(c2ccc(F)cc2)C1 (stereo unspecified) was run?
Its Potency is inconclusive: 35.5 µM [inhibitor, partial curve, poor fit].

How did the Potency turn out when Cc1ccc(NC(=O)N2CCSc3ncccc32)cc1Cl was run?
Its Potency is inconclusive: 22.4 µM [inhibitor, partial curve, poor fit].

Cc1cccc(N2CCN(c3ncncc3-c3nc(-c4ccccc4)no3)CC2)c1 was tested. Which Potency did it give?
Its Potency is active: 22.4 µM.

Which “activity change, negative = inhibition” value does the source give for COc1c(CNCC(O)COc2ccccc2)c(C(C)C)nn1C (stereo unspecified) here?
The value was inactive: -19.1%.

For O=C(COc1ccccc1F)Nc1nn2cc(-c3ccccc3)nc2s1, which “activity change, negative = inhibition” value is on record?
Its value is inactive: -5.81%.

For CCC(=O)Oc1ccc2oc(=O)c(-c3ccc(OC)cc3)c(C)c2c1, which Potency is on record?
The Potency was inconclusive: 35.5 µM [inhibitor, single point].

With Cc1ncsc1CN1CCCN(Cc2ccncc2)C(c2ccccc2)CC(=O)NCC1 (stereo unspecified) as the compound, how does the Potency read?
Its Potency is inconclusive: 22.4 µM [inhibitor, single point].

Which Potency does the source give for CN(C)c1ncc2c(n1)C(C)(C(=O)NCC1CC1)CCC2 (stereo unspecified) here?
The Potency was active: 31.6 µM.

For Cc1ccc(C(=O)NC2CCc3nnc(C4CC4)n3CC2)c(=O)[nH]1 (stereo unspecified), which Potency is on record?
The Potency was active: 31.6 µM.

With CCOC(=O)c1ccc(NC(=O)CCc2c(C)n(CC)c3cc(-c4ccccc4OC)nn3c2=O)cc1 as the compound, how does the Potency read?
The Potency was inconclusive: 15.8 µM [inhibitor, partial curve, poor fit].

With COc1ccccc1-c1nc(C(=O)NCc2cccs2)n2ccccc12 as the compound, how does the Potency read?
The Potency was inconclusive: 28.2 µM [inhibitor, partial curve, poor fit].

Which Potency does the source give for Cc1ccc2c(c1)CCCN2CC(=O)N(C)c1c(N)n(Cc2ccccc2)c(=O)[nH]c1=O here?
The Potency was inconclusive: 31.6 µM [inhibitor, partial curve, poor fit].

How did the Potency turn out when CCc1cccc(-n2c(=O)c3cccnc3n2CC(=O)NCc2ccccc2Cl)c1 was run?
The Potency was inconclusive: 31.6 µM [inhibitor, partial curve, poor fit].

How did the Potency turn out when Cn1cc(CN2CCCN(S(=O)(=O)c3ccccc3)CCC(=O)NCC2)c2ccccc21 was run?
Its Potency is inconclusive: 17.8 µM [inhibitor, partial curve, poor fit].

CCN1c2cc(C(=O)Nc3ccc(F)c(C)c3)ccc2C(=O)N2CCCCC21 (stereo unspecified) was tested. Which Potency did it give?
The Potency was inconclusive: 31.6 µM [inhibitor, partial curve, poor fit].

Which Potency does the source give for CCOc1ccc2oc(=O)cc(CN3CCN(C(=O)c4cccc(F)c4)CC3)c2c1 here?
Its Potency is inconclusive: 11.2 µM [inhibitor, partial curve, poor fit].

For CCCN(CCC)CCNC(=O)Cn1ncc2c([nH]c3ccc(C)cc32)c1=O, which Potency is on record?
The Potency was inconclusive: 2.24 µM [inhibitor, partial curve, poor fit].

For COc1ccccc1NC(=O)Cn1nc2c(cc1=O)CN(C(C)=O)CC2, which Potency is on record?
Its Potency is inconclusive: 15.8 µM [inhibitor, partial curve].

c1ccc(Cn2cc(CN3CCN(c4ccncc4)CC3)c(-c3cc4ccccc4o3)n2)cc1 was tested. Which “activity change, negative = inhibition” value did it give?
Its value is inactive: -18.1%.

Which “activity change, negative = inhibition” value does the source give for O=C(C1CCC1)N1CCC(c2noc(-c3ccncc3)n2)C1 (stereo unspecified) here?
Its value is inactive: -12.9%.

How did the Potency turn out when CCNC(=O)O[C@@H]1CO[C@H]2[C@@H]1OC[C@@H]2Nc1nccc(-c2ccc(-c3ccccc3)cc2)n1 was run?
The Potency was inconclusive: 31.6 µM [inhibitor, partial curve, poor fit].

Which Potency does the source give for Cc1cc(N)ccc1NC(=O)CN1CCCC1 here?
The Potency was inconclusive: 2.51 µM [inhibitor, full curve, poor fit].

COC(=O)C(=O)CC(=O)c1ccc2c(c1)OCO2 was tested. Which Potency did it give?
Its Potency is inconclusive: 10 µM [inhibitor, partial curve, poor fit].

How did the “activity change, negative = inhibition” value turn out when CNC(=O)c1ccc(NS(=O)(=O)c2ccc(NC(C)=O)cc2)cc1 was run?
The value was inactive: -5.8%.

For Cc1ccc(CNC(=O)c2ccc(Nc3cc(-c4ccc(F)cc4)ncn3)cc2)o1, which Potency is on record?
Its Potency is inconclusive: 25.1 µM [inhibitor, partial curve, poor fit].

For Cc1cccc(OCCSC(C)C(=O)NC(C)(C)C)c1 (stereo unspecified), which “activity change, negative = inhibition” value is on record?
Its value is inactive: 18%.

Which Potency does the source give for Cn1cc(CC(=O)N2CCCc3ncc(C(=O)NCC4CCCO4)cc32)c2ccccc21 (stereo unspecified) here?
The Potency was inconclusive: 35.5 µM [inhibitor, partial curve, poor fit].

For CN1C[C@H](C(=O)NCc2ccncc2)C[C@H]1c1cccc(C(F)(F)F)c1, which “activity change, negative = inhibition” value is on record?
Its value is inactive: -14.4% [at 86.2 µM].

With CC(=O)Nc1cccc(-c2n[nH]c3c2CC(=O)N(Cc2ccccc2)C3)c1 as the compound, how does the “activity change, negative = inhibition” value read?
Its value is inactive: -7.01% [at 86.2 µM].

With Cc1nc(SC(C)c2ccc(F)c(Cl)c2)sc1CC(N)=O (stereo unspecified) as the compound, how does the “activity change, negative = inhibition” value read?
Its value is inactive: 5.34%.

Cc1c(CC(=O)N2CCC(O)(c3ccc(Cl)cc3)CC2)c(=O)oc2c(C)c(O)ccc12 was tested. Which Potency did it give?
Its Potency is inconclusive: 5.62 µM [inhibitor, full curve, poor fit].

O=C(NC1CCN(c2nnc3ccccn23)CC1)c1ccc(Cl)s1 was tested. Which Potency did it give?
The Potency was active: 25.1 µM.

Cc1ccn2c(C(=O)N[C@H](c3cnn(C)c3)C3CC(O)C3)nnc2n1 (stereo partly specified) was tested. Which “activity change, negative = inhibition” value did it give?
Its value is inactive: -7.28%.

Which “activity change, negative = inhibition” value does the source give for Cc1ccc(S(=O)(=O)NC(C)(C)C)cc1C(=O)NCc1coc(-c2cccs2)n1 here?
The value was inactive: -30.7%.

With Cc1nc2c(c(C)nn2-c2ccccc2)c(C)c1CCC(=O)Nc1ccc(F)cc1 as the compound, how does the Potency read?
Its Potency is inconclusive: 31.6 µM [inhibitor, partial curve, poor fit].

COc1cc(Nc2nc(SCc3cccc(Cl)c3)nc3ccccc23)cc(OC)c1 was tested. Which Potency did it give?
Its Potency is inconclusive: 35.5 µM [inhibitor, partial curve, poor fit].

Which Potency does the source give for NC(=O)NCC(=O)N1CCCC(Nc2ccc3c(c2)OCCO3)C1 (stereo unspecified) here?
Its Potency is inconclusive: 20 µM [inhibitor, partial curve, poor fit].

How did the Potency turn out when CCN(CC)CCCn1c(C)c(C)c2c1ncn1nc(-c3cccs3)nc21 was run?
Its Potency is inconclusive: 22.4 µM [inhibitor, partial curve, poor fit].

Which Potency does the source give for Cc1ccc2nc(-c3ccc(NC(=O)C(F)(F)F)cc3)sc2c1 here?
The Potency was inconclusive: 7.94 µM [inhibitor, partial curve, poor fit].

Which “activity change, negative = inhibition” value does the source give for Cn1ccc2c(C(=O)NCc3cccnc3)nc(-c3cnn(Cc4ccccc4)c3)cc21 here?
Its value is inactive: -3240% [at 86.2 µM].

For CCCCC(=O)Nc1c(S(=O)(=O)c2ccc(F)cc2)c(C)c(C)n1CCOC, which “activity change, negative = inhibition” value is on record?
The value was inactive: 4.94%.

Which “activity change, negative = inhibition” value does the source give for CCOc1ccc(C(=O)C(C)OC(=O)c2ccc(C(N)=O)cc2)cc1 (stereo unspecified) here?
Its value is inactive: 17.4%.

With CC(=O)c1ccc(NC(=O)C2=CC(c3cccs3)=NS(=O)(=O)N2C)cc1 as the compound, how does the Potency read?
The Potency was inconclusive: 28.2 µM [inhibitor, single point].

Which Potency does the source give for CC1=C[C@@H](CNCc2ccc(C#N)cc2)[C@H](C(C)C)C[C@H]1Cc1nnc(C(C)(C)C)o1 here?
The Potency was inconclusive: 39.8 µM [inhibitor, partial curve, poor fit].

Which Potency does the source give for Cc1cc(C)n(-c2nnc(Nc3ccc(C(C)C)cc3)c3ccccc23)n1 here?
The Potency was inconclusive: 39.8 µM [inhibitor, single point].
